In the RNAGym collection of RNA variant scans (doi:10.7554/elife.90254):
The source gives no read counts; variants with many changes may rest on few reads.

B1: OR4K15 (parent)
chain: GUUAACGGUCAUAGGCCAUGGAAACUAGGAGCACCAUUUCGCUGCCAGUGAAGAAAUGAACAAAGAAAAUCUGGGCCAGGCAGGCAUCAAAAGAAAUAGUCUUGCGCUCAACCAGAAAGUCUGUAAUCAUUUUAAGGGUA

Variants of: B1
Assay: self-cleavage, relative activity (ratio to wild type); higher = more cleavage; in vitro, sequencing; the parent is a self-cleaving ribozyme

Variant | self-cleavage
GUUAACGGUCAUAGGCCAUGGAAUCUAGGAGCACAAUUUCGCUGCCAGUGGAGAAAUGAACAAAGAAAAUCUGGGCCAGGCAGGCACCAAAAGAAAUAGUCUUGCGCUCGACCAGAAAGUCUGUAAUCAUUUUAAGGGUA [A24U C35A A51G U87C A110G] | 0.05
GUUAACGGUCAUAGGCCAUGGAAUCUAGGAGCACCAUUUAGCUGCCAGUGAAGAAAUGAACAAAGAAAAUCUGGGCCAGGCAGGCAUCAAAAGGAAUAGUCUUGCGCUCAACCAGAAAGUCUGUAAUCAUUUUAAGGGUA [A24U C40A A94G] | 1.53
GUUAACGGUCAUAGGCCAUGGAAUCUAGGAGCACCAUUUCGCUGUCAGUGAUGAAAUGAACAAAGGAAAUCUGGGCCAGGCAGGCAUCAGAAGAAAUAGUCUUGCGCUCAACCAGAAAGUCUGUAAUCAUUUUAAGGGUA [A24U C45U A52U A66G A90G] | 1.63
GUUAACGGUCAUAGGCCAUGGAAUCUAGGAGCACCAUUUCGCUGCCAGUGAAGAAAUGAACAAAGAAAAUCUGGCCCAGGCAGGCAUCAAAAGAAAUAGUCUUGCGCUCAACCAGAAAGUCGGUAAUCAUUUUAAGGGUA [A24U G75C U122G] | 0.19
GUUAACGGUCAUAGGCCAUGGAAUCUAGGAGCACCACUUCGCUACCAGUGAUGAAAUGAACAAGGAAAAUCUGGGCCAGGCAGGCAUCAAAAGAAACAGUCUUGCGCUCAACCAGAAAGUCUGUAAUCAUUUUAAGGGUA [A24U U37C G44A A52U A64G U97C] | 1.81
GUUAACGGUCAUAGGCCAUGGAAUCUAGGAGCACCAUCUCGCUGCCAGUGAAGAAAUGAACAAAGAAAAUCUGGGCCAGGCAGGCAUCAAAAGAAACAGUCUUGCGCUCAACCAGAAAGUCUGUAAUCAUUUUAAGGGUA [A24U U38C U97C] | 2.12
GUUAACGGUCAUAGGCCAUGGAAUCUAGGAGCACCAUUCCGCUGCCAGUGACGAAAUGAACAAAGAAAAUCUGGGCCAGGCAGGCAUCAAAAGAAAUAGUCUUGCGCUCAACCAGAAAGUCUGUAAUCAUUUUAAGGGUA [A24U U39C A52C] | 0.82
GUUAACGGUCAUAGGCCAUGGAAUCUAGGAGCACCAUUCCGCUGCCAGUGAAGAAAUGAACAAAGAAAAUCUGGGCCCGGCAGGCAUCAAAAGAAAUAGUCUUGCGCUCAACCAGAAAGUCUGUAAUAAUUUUAAGGGUA [A24U U39C A78C C128A] | 0.15
GUUAACGGUCAUAGGCCAUGGAAUCUAGGAGCACCAUUUCGCCGCCGGUGAAGAAAUGAACAAAGAAAAUCUGGGCCAGGCAGGCAUCAAAAGAGAUAGUCUUGCGCUCAACCAGAAAGUCUGUAAUCAUUUUAAGGGUA [A24U U43C A47G A95G] | 1.76
GUUAACGGUCAUAGGCCAUGGAAUCUAGGAGCACCAUUUCGCCGCCAGAGAAGAAAUGAACGAAGAAAAUCUGGGCCAGGCAGGCGUCAAAAGAAAUAGUCUUGCGCUCAACCAGAAAGUCUGCAAUCAUUUUAAGGGUA [A24U U43C U49A A62G A86G U124C] | 0.52
GUUAACGGUCAUAGGCCAUGGAAUCUAGGAGCACCAUUUCGCUGCCAGCGAAGAAAUGAACAAAGAAAAUCUGGGCUAGGCAGGCAUCAAAAGAAAUAGUCUUGCGCUCAACCAGAAAGUCUGUAAUCAUUUUAAGGGUA [A24U U49C C77U] | 0.61
GUUAACGGUCAUAGGCCAUGGAAUCUAGGAGCACCAUUUCGCUGCCAGUGAAGAAAAGAACGAAGAAAAUCUGGGCCAGGCAGGCAUCAAAAGAAAUAGUCUUGCGCUCAACCAGAGAGUCUGUAAUCAUUUUAAGGGUA [A24U U57A A62G A117G] | 0.46
GUUAACGGUCAUAGGCCAUGGAAUCUAGGAGCACCAUUUCGCUGCCAGUGAAGAAACGAACAAAGAAAAUCUGGGCCAGGCAGGCAUCAAAAGAAAUAGUCUUGCGCUCAACCUGAAAGUCUGUAAUCAUUUUAAGGGUA [A24U U57C A114U] | 0.02
GUUAACGGUCAUAGGCCAUGGAAUCUAGGAGCACCAUUUCGCUGCCAGUGAAGAAAUGAACAAAGAAAACCUGGGCCAGGCAGGCAUCAAAAGAAAUAGUCUGGCGCUCAACCAGAAAGUCUGUAAUCAUUUUAAGGGUA [A24U U70C U103G] | 0.01
GUUAACGGUCAUAGGCCAUGGAAUCUAGGAGCACCAUUUCGCUGCCAGUGAAGAAAUGAACAAAGAAAAUCCGGGCCAGGCAGGCAUCAAAAGGAAUGGUCUUGCGCUCAACCAGAAAGUCUGUAAUCAUUUUAAGGGUA [A24U U72C A94G A98G] | 0.09
GUUAACGGUCAUAGGCCAUGGAAAAUAGGAGCACCAUUUCGCUGCCAGUGAAGGCAUGAACAAUGAAAAUCUGGGCCAGGCAGGCAUCAAGAGAAAUAGUCUUGCGCUCAACCAGAAAGUCUGUAAUCAUUUUAAGGGUA [C25A A54G A55C A64U A91G] | 0.61
GUUAACGGUCAUAGGCCAUGGAAAAUAGGAGCACCAUUUCGCUGCCAGUGAAGAAAUGAACAAAGACAAUCUGGGCCAGGCAGGCAUCAAAAGAAAUAGUCUUGCGCUCAACCAGAGAGUCUGUAAUCAUUCUAAGGGUA [C25A A67C A117G U132C] | 1.95
GUUAACGGUCAUAGGCCAUGGAAAAUAGGAGAACCAUUUCGCUGCCGGUGAAGAAAUGAACAAAGAAAAUCUGGGCCAGGCAGGCAUCGAAAGAAAUAGUCUUGCGCUCAACCAGAAAGUCUGUAAUCAUUUUAAGGGUA [C25A C32A A47G A89G] | 0.18
GUUAACGGUCAUAGGCCAUGGAAAAUAGGAGCACCAUUUCGCCGCCAGUGAAGAAAUGAACAAAGAAAAUCUGGGCCGGGCAGGCAUCAAAAGAAAUAGUCUUGCGCUCAACCAGAAAGUCUGUAAUCAUUUUAAGGGUA [C25A U43C A78G] | 0.16
GUUAACGGUCAUAGGCCAUGGAAAAUAGGAGCACCAUUUCGCUGCCAGUGAAGAAAUGAACAAAGAAAAUCCGGGCCAGGCAGGCAUCAAAAGAAAUAGCCUUGCGCUCAACCAGAAAGUCUGUAAACAUUUUAUGGGUA [C25A U72C U100C U127A A135U] | 0.38
